Assay results taken from PubChem BioAssay AID504832 (National Center for Advancing Translational Sciences (NCATS), 2011).
About 18,000 (5.8%) of roughly 310,000 compounds were called active. The shares of active, inactive and inconclusive entries below differ from those in the screen. The call rests on the fitted dose curve; in most records, active means well fitted inhibition curve with a large enough effect; inconclusive means small, poorly fitted or top-dose-only effect, or another doubt; inactive means no such curve, though single readings can be large or run the other way. Potencies of inconclusive entries are left out as doubtful fits.

assay: Primary qHTS for delayed death inhibitors of the malarial parasite plastid, 48 hour incubation; settings: P. falciparum luciferase growth in erythrocytes; series mostly up to 28.7 µM; activity change, negative = inhibition: at the top concentration
Summary of the method: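 Here the parasites carry a stable luciferase gene and grow inside erythrocytes in Albumax-based RPMI medium with compound for one erythrocytic cycle. Activity is scored as loss of luminescent signal.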
On the % scale 0 is the no-effect control and ±100 the full control effect; potency means the concentration at half of the fitted maximal effect; tags describe the fitted curve by direction and shape.

Row | Compound | Potency | activity change, negative = inhibition
1 | COc1ccc(C2CC(c3cccs3)=NN2c2ccc(F)cc2)cc1OC (stereo not given) | inconclusive [inhibitor, partial curve, poor fit] | –
2 | Oc1ccc(CNC2CCCCC2)cc1 | active: 11.7 µM | –
3 | O=C(c1ccccn1)N1CCN(c2cccc(C(F)(F)F)c2)CC1 | – | inactive: 20.7%
4 | O=C(N1CCN=C1SCc1cccnc1)C12CC3CC(CC(C3)C1)C2 | active: 14.7 µM | –
5 | Oc1ccc2ccccc2c1-c1sc(Nc2ccccc2)n[n+]1-c1ccc(F)cc1 | inconclusive [inhibitor, full curve] | –
6 | Cc1nc(NC2=NC(C(=O)Nc3ccc(Cl)cc3)CC(=O)N2)nc2ccccc12 (stereo not given) | inconclusive [inhibitor, single point] | –
7 | CCCN(CC(=O)Nc1ccccc1C)C(=O)C1CCN(S(=O)(=O)c2cccc(C(F)(F)F)c2)CC1 | – | inactive: -17.7%
8 | CCN(CC)C(C)C(=O)Nc1c2c(cc3c1CCC3)CCC2 (stereo not given) | inconclusive [inhibitor, partial curve] | –
9 | CCOc1ccc(N(CC)S(=O)(=O)c2ccc3c(c2)oc(=O)n3C)cc1 | inconclusive [inhibitor, single point] | –
10 | O=C(CC(C(=O)O)c1cccc(Cl)c1Cl)c1ccccc1 (stereo not given) | – | inactive: 19.2%
11 | Cc1cccc(-c2noc(CN(C(=O)C34CC5CC(CC(C5)C3)C4)C(C)C)n2)c1 | inconclusive [inhibitor, single point] | –
12 | Cc1ccc2c(c1)N(C(=O)CCC(=O)NC1CCCCCC1)CCO2 | – | inactive: 9.93%
13 | CC(=O)c1ccc(OCCCC(=O)Nc2ccc(C)c(S(=O)(=O)N(C)C)c2)cc1 | inconclusive [inhibitor, single point] | –
14 | COc1cccc(-c2nnc(SCC(=O)N(C(C)C)C(C)C)o2)c1 | – | inactive: -29.7%
15 | COc1ccc(NC(=O)C(C)N2c3cccc4cccc(c34)S2(=O)=O)c(OC)c1 (stereo not given) | inconclusive [inhibitor, single point] | –
16 | Cc1cccc(OCCn2ccnc2)c1C | – | inactive: 6.97%
17 | CCOc1ccccc1CN1CCC(CO)(CCOc2ccccc2)CC1 | inconclusive [inhibitor, partial curve, poor fit] | –
18 | CCc1c(C)nc2cc(-c3ccc(Cl)cc3)[nH]n2c1=O | inconclusive [inhibitor, single point] | –
19 | Cc1ccc(CNCC(=O)Nc2ccc(N3CCOCC3)cc2)cc1 | – | inactive: 10.2%
20 | CC(=O)c1sc(NC(=O)C2(F)C(F)(F)C(F)(F)C(F)(F)C(F)(F)C2(F)F)nc1C | active: 8.28 µM | –
21 | CCOC(=O)c1noc(C)c1C(=O)Nc1nc(C)cc(C)n1 | – | inactive: -4.41%
22 | O=C(NCCc1cccc(Cl)c1)c1cccs1 | – | inactive: 63.7%
23 | CCCN1C(=O)CN(C2CCCCCC2)C(=O)C1c1ccc(C)cc1 (stereo not given) | inconclusive [inhibitor, single point] | –
24 | O=C(CSc1c2c(nc3ccc(Cl)cc13)CCCC2)NCCCN1CCOCC1 | inconclusive [inhibitor, full curve, poor fit] | –

Row | Compound | Potency | activity change, negative = inhibition
25 | CCCCn1c(SCC(=O)Nc2cc(C(F)(F)F)cc(C(F)(F)F)c2)nnc1C(CC)N(C)C (stereo not given) | inconclusive [inhibitor, partial curve] | –
26 | CCOc1ccc(NC(=O)COC(=O)CCN2C(=O)C3CC=CCC3C2=O)cc1OCC (stereo not given) | inconclusive [inhibitor, single point] | –
27 | CCCCCCSc1ccc([C@H]2N[C@@](C)(C(=O)OC)[C@H]3C(=O)N(CC)C(=O)[C@@H]23)cc1 | inconclusive [inhibitor, single point] | –
28 | Cc1nnc2ccc(N3CCN(c4cccc(C(F)(F)F)c4)CC3)nn12 | inconclusive [inhibitor, single point] | –
29 | Cc1noc(C)c1CSCC(=O)Nc1cc(Cl)ccc1N1CCCCC1 | inconclusive [inhibitor, single point] | –
30 | CN1CCc2c1nc1ccccc1c2N (tested in a mixture with another compound) | inconclusive [inhibitor, full curve, poor fit] | –
31 | Cc1nc(NS(=O)(=O)c2ccc(Cl)s2)c2c3c(sc2n1)CCCC3 | inconclusive [inhibitor, single point] | –
32 | COc1ccc(/C=N/NC(=O)c2cccc(Br)c2)cc1CN1CCOCC1 | – | inactive: -11.4%
33 | COc1ccc(NS(=O)(=O)c2cc(NC(=O)c3cc(=O)c4ccccc4o3)ccc2OC)cc1 | active: 8.28 µM | –
34 | COc1ccc(CCNC(=O)C(C)n2nc(C)c3c(C)n(-c4ccc(C)cc4)nc3c2=O)c(OC)c1 (stereo not given) | active: 13.1 µM | –
35 | O=C(Nc1ccc(S(=O)(=O)Nc2ccccn2)cc1)c1cccc([N+](=O)[O-])c1 | inconclusive [inhibitor, single point] | –
36 | CN(Cc1ccccc1)S(=O)(=O)c1ccc(OCC(=O)NCc2cccnc2)cc1 | inconclusive [inhibitor, partial curve, poor fit] | –
37 | CCOc1ccc(Br)cc1S(=O)(=O)Nc1ccccc1N1CCOCC1 | active: 8.28 µM | –
38 | Cc1ccc(/C=C/C(=O)NC2CCS(=O)(=O)C2)cc1 (stereo not given) | inconclusive [inhibitor, full curve] | –
39 | CCc1cccc(NC(=O)CCC(=O)N2CCSc3ccccc32)c1 | inconclusive [inhibitor, partial curve, poor fit] | –
40 | COC(=O)c1ccc(CSc2nc3ccccc3c(=O)n2-c2ccc(OC)c(OC)c2)o1 | active: 8.28 µM | –
41 | CN(CC(=O)Nc1cccc(F)c1)C(=O)c1cccnc1Sc1ccc(Cl)cc1 | inconclusive [inhibitor, single point] | –
42 | Clc1cccc(C[n+]2cc(-c3ccccc3)n3c2CCC3)c1 | active: 2.08 µM | –
43 | O=C(NCc1ccncc1)C(=O)NCC(c1ccccc1)c1ccccc1 | – | inactive: -25.5%
44 | Cc1nc2ccc(S(=O)(=O)N(C)CC(=O)NCCc3ccccc3)cc2s1 | inconclusive [inhibitor, partial curve] | –
45 | CCC(C)c1ccccc1N1CC(C(=O)NCCCn2nc(C)cc2C)CC1=O (stereo not given) | – | inactive: 17.4%
46 | CSc1nc(N2CCOCC2)c2c3c(sc2n1)CCC3 | inconclusive [inhibitor, single point] | –
47 | COc1cccc(NC(=O)c2ccc(NC(=O)C3CC(=O)OC34CCCCC4)cc2)c1 (stereo not given) | inconclusive [inhibitor, partial curve] | –
48 | CCOC(=O)C(CC)Sc1nc2c(c(=O)[nH]c(=O)n2C)n1CCc1ccccc1 (stereo not given) | active: 10.4 µM | –

Row | Compound | Potency | activity change, negative = inhibition
49 | CCC(=O)Nc1nc2ccccc2n1Cc1ccccc1C | active: 1.47 µM | –
50 | Cn1c(=O)c2c(nc(SCC(=O)N3c4ccccc4CCc4ccccc43)n2C)n(C)c1=O | inconclusive [inhibitor, single point] | –
51 | Cc1[nH]n(CCC#N)c(=O)c1CC(=O)N1CCN(c2ccccc2)CC1 | inconclusive [inhibitor, single point] | –
52 | O=C(CCCCCBr)N1CCC(CC2CC(c3cccc(Br)c3)=NO2)(C(=O)NCC2CCCCC2)CC1 (stereo not given) | inconclusive [inhibitor, full curve, poor fit] | –
53 | COc1ccc(NC(=O)c2ccc(-c3nn(C)c(=O)c4ccccc34)cc2)cc1C(N)=O | inconclusive [inhibitor, single point] | –
54 | CC(NC(=O)c1nn(C)c(=O)c2ccccc12)c1ccc(F)cc1 (stereo not given) | inconclusive [inhibitor, single point] | –
55 | C/C(=N\NC(=O)CCc1ccc(S(=O)(=O)N2CCOCC2)cc1)c1ccc(OC(F)F)cc1 | inconclusive [inhibitor, partial curve, poor fit] | –
56 | Cc1ccc(Cl)cc1-n1c(=O)cc(N2CC(C)OC(C)C2)[nH]c1=O (stereo not given) | inconclusive [inhibitor, single point] | –
57 | O=c1c2ccccc2n(Cc2cccc(F)c2)c(=O)n1C1CCCC1 | inconclusive [inhibitor, single point] | –
58 | Cc1ccccc1S(=O)(=O)c1c(C)cc(-c2ccccc2)[nH]c1=O | – | inactive: -0.251%
59 | O=c1c2c3c(sc2nc(N2CCNCC2)n1-c1cccc(Cl)c1)CCCCC3 | inconclusive [inhibitor, partial curve] | –
60 | CCCCn1c(SCN2C(=O)c3ccccc3C2=O)nc2cc(S(N)(=O)=O)ccc21 | – | inactive: 6.46%
61 | Cc1cc(CNC(=O)c2cc(Br)ccc2Cl)nn1C | – | inactive: 18.1%
62 | CC1CCN(CCCOc2ccc(Cl)cc2Br)CC1 | – | inactive: -15.1%
63 | COc1ccccc1CN1C[C@@H]2C[C@@H](C3=Cc4cccc(OC)c4OC3)N3CCC[C@@]23C1=O | active: 4.65 µM | –
64 | COc1cc(Cl)c(C)cc1NC(=O)CSc1nnc(CCC(=O)O)c(=O)[nH]1 | – | inactive: 11.6%
65 | CCOC(=O)N/N=C(C)/C=C/c1ccccc1 | – | inactive: 0.117%
66 | CCc1ccccc1NC(=O)CNC(=O)c1ccc(-n2cncn2)c([N+](=O)[O-])c1 | inconclusive [inhibitor, single point] | –
67 | CSc1cccc(NC(=S)N(CCC(C)C)C(C)c2ccncc2)c1 (stereo not given) | inconclusive [inhibitor, partial curve, poor fit] | –
68 | Cc1ccccc1C(=O)Nc1ccc(N(C)C)c2ccccc12 | inconclusive [inhibitor, single point] | –
69 | O=C(Nc1ccccc1C(=O)NCCN1CCOCC1)c1ccc(Cl)cc1Cl | inconclusive [inhibitor, partial curve] | –
70 | CCN(CC(=O)Nc1ccc(NC(C)=O)cc1)C(=O)c1cc2c(s1)CCCC2 | – | inactive: -14.8%
